The supplement of paper PMC9446081
In all, about 39,000 compounds went through this assay and about 220 (0.56%) showed activity. The list shows a part of the results.
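Further: static incubation at 37 °C against the wild-type strain, values averaged over two biological replicates.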

The molecules below were run on Escherichia coli K-12 BW25113 (assay: relative growth (OD600 normalised to plate interquartile mean) (fraction); higher = less growth inhibition, active = 0.2 or less). Details: 50 µM; LB; incubation time: overnight (16-24 h).
For C[C@@H]1CN([C@H](C)CO)C(=O)Cc2cc(NC(=O)CCCCCC(=O)Nc3ccccc3N)ccc2O[C@H]1CN(C)Cc1ccc(Oc2ccccc2)cc1, the relative growth was inactive: 0.981. For C[C@H](CO)N1C[C@H](C)[C@@H](CN(C)S(=O)(=O)c2cn(C)cn2)Oc2ncc(C3=CCCC3)cc2C1=O, the relative growth was inactive: 0.986. In the case of COc1ccc2c3c(n(c2c1)C)[C@@H](CO)N(C[C@]13CCN(CC1)C(=O)c1ccncc1)C(=O)C1CCC1, the relative growth is reported as inactive: 1. With CC(C)NC(=O)Nc1ccc2c(c1)C(=O)N([C@H](C)CO)C[C@@H](C)[C@H](CN(C)C(=O)Nc1ccc(C(F)(F)F)cc1)OCCCC[C@@H](C)O2 the relative growth was inactive: 1.04. COc1ccc(S(=O)(=O)N2C[C@H](O)COC[C@H]3O[C@H](CC(=O)NCc4ccc(Cl)c(Cl)c4)CC[C@@H]32)cc1 was tested, and the relative growth was inactive: 1.01. COc1ccc([Si](C)(C)[C@H]2[C@H](CCn3cc([C@H](O)c4ccccc4)nn3)O[C@@]3(C(=O)N(C)c4c(Br)cc(C)cc43)[C@@H]2C)cc1 was tested, and the relative growth was inactive: 0.886. For CCNC(=O)c1cccc(NS(C)(=O)=O)c1, the relative growth was inactive: 0.976. C[C@@H]1CN([C@@H](C)CO)C(=O)Cc2cc(NS(=O)(=O)c3ccccc3)ccc2O[C@@H]1CN(C)Cc1ccc(Cl)c(Cl)c1 was tested, and the relative growth was inactive: 0.994. With C[C@@H]1CN([C@H](C)CO)C(=O)Cc2cc(NC(=O)C3CC3)ccc2O[C@@H]1CN(C)S(=O)(=O)c1ccc(Cl)cc1 the relative growth was inactive: 0.977. For C[C@H]1CN([C@@H](C)CO)C(=O)c2cc(NC(=O)Nc3cccc4ccccc34)ccc2O[C@H]1CN(C)Cc1ccc(C(=O)O)cc1, the relative growth was inactive: 0.992. For CN(C)C(=O)C[C@@H]1CC[C@H]2[C@@H](COC[C@H](O)CN2S(=O)(=O)c2ccccc2)O1, the relative growth was inactive: 1.01. In the case of CC(C)NC(=O)N(C)C[C@@H]1Oc2ccc(NS(=O)(=O)c3cccs3)cc2C(=O)N([C@@H](C)CO)C[C@@H]1C, the relative growth is reported as inactive: 0.996. With C[C@@H]1CCCCO[C@@H](CN(C)C(=O)Cc2ccccc2)[C@@H](C)CN([C@@H](C)CO)C(=O)c2cc(NC(=O)c3ccccc3)ccc2O1 the relative growth was inactive: 0.985. With N=C(N=C(N)N)N1N=CC[C@@H]1c1ccccc1 the relative growth was inactive: 1.01. With C[C@@H]1CCCCO[C@@H](CN(C)S(=O)(=O)c2cccs2)[C@H](C)CN([C@@H](C)CO)C(=O)c2cc(NC(=O)Nc3ccccc3)ccc2O1 the relative growth was inactive: 1.02. C[C@H]1CC/C=C\[C@H]2O[C@@]34C=CCN(Cn5nnc6ccccc65)C(=O)[C@H]3N(CCCCCO)C(=O)[C@@H]4[C@@H]2C(=O)O1 was tested, and the relative growth was inactive: 0.977. For COc1ccc(-c2cn(CCCNC(=O)[C@H](Cc3ccccc3)NS(=O)(=O)c3ccc(C)cc3)nn2)cc1OC, the relative growth was inactive: 1.02. COc1ccc2c3c(n(c2c1)C)[C@H](CO)N(C[C@]13CCN(CC1)C(=O)CN(C)C)C(=O)C1CCCCC1 was tested, and the relative growth was inactive: 1.03. For COc1ccc(NC(=O)N(C)C[C@@H]2OCCCC[C@@H](C)Oc3ccc(NS(=O)(=O)c4ccc(C)cc4)cc3C(=O)N([C@H](C)CO)C[C@@H]2C)cc1, the relative growth was inactive: 0.987. For C[C@@H]1CN([C@@H](C)CO)C(=O)Cc2cc(NC(=O)Cn3cnnn3)ccc2O[C@@H]1CN(C)S(=O)(=O)c1ccccc1, the relative growth was inactive: 1.01. In the case of C[C@H](CO)N1C[C@H](C)[C@@H](CN(C)Cc2ccncc2)Oc2ccc(NC(=O)CCN3CCOCC3)cc2C1=O, the relative growth is reported as inactive: 1.05. With N#Cc1ccc[nH]c1=O the relative growth was inactive: 1.01. In the case of O=C(C[C@@H]1C[C@@H]2c3cc(NC(=O)c4ccc5c(c4)OCO5)ccc3O[C@@H]2[C@@H](CO)O1)NCCc1ccccc1, the relative growth is reported as inactive: 1.01. With C[C@H](CO)N1C[C@H](C)[C@@H](CN(C)S(=O)(=O)c2ccccc2)Oc2c(NS(=O)(=O)c3cn(C)cn3)cccc2C1=O the relative growth was inactive: 0.979. In the case of COc1ccccc1-c1ccc2n(c1=O)C[C@H]1[C@H](CO)[C@@H](C(=O)NCC3CC3)N(S(C)(=O)=O)[C@@H]21, the relative growth is reported as inactive: 0.976. In the case of Nc1nnc(C2CC2)o1, the relative growth is reported as inactive: 1.03. C[C@H](CO)N1C[C@H](C)[C@H](CN(C)S(=O)(=O)c2cccs2)Oc2c(NC(=O)c3cnccn3)cccc2C1=O was tested, and the relative growth was inactive: 1.02. In the case of CC(C)NC(=O)N[C@@H]1C=C[C@H](CC(=O)NCCN2CCCC2)O[C@H]1CO, the relative growth is reported as inactive: 0.85. Cc1noc(C)c1NC(=O)Nc1ccc2c(c1)C(=O)N([C@@H](C)CO)C[C@H](C)[C@H](CN(C)S(C)(=O)=O)O2 was tested, and the relative growth was inactive: 1. In the case of CO[C@H]1CN(C)C(=O)c2ccc(NC(=O)NC(C)C)cc2OC[C@H](C)N(Cc2ccc(-c3ccccn3)cc2)C[C@@H]1C, the relative growth is reported as inactive: 0.965. With C[C@H](CO)N1C[C@H](C)[C@@H](CN(C)Cc2ccc(Oc3ccccc3)cc2)Oc2ccc(NC(=O)CCC(F)(F)F)cc2CC1=O the relative growth was inactive: 0.965. For C[C@H](CO)N1C[C@H](C)[C@@H](CN(C)C)Oc2cc(C#C[C@@H](C)O)ccc2S1(=O)=O, the relative growth was inactive: 0.983. Cc1ccc(S(=O)(=O)N(C)C[C@@H]2Oc3c(NC(=O)c4cnccn4)cccc3C(=O)N([C@@H](C)CO)C[C@@H]2C)cc1 was tested, and the relative growth was inactive: 1. For COc1ccc2c3c(n(c2c1)C)[C@@H](CO)N(C[C@]13CCN(CC1)C(=O)C1CC1)C(=O)CN1CCOCC1, the relative growth was inactive: 0.989. In the case of Cc1cc(O)cc(O)c1C(=O)O, the relative growth is reported as inactive: 0.87. In the case of C[C@@H]1CCCCO[C@@H](CN(C)S(=O)(=O)c2cccs2)[C@H](C)CN([C@H](C)CO)C(=O)c2cc(NC(=O)NC3CCCCC3)ccc2O1, the relative growth is reported as inactive: 1.03. With Cn1c2c(c(=O)n(C)c1=O)CN(CC1CC1)CN2 the relative growth was inactive: 1. For CN(C)CC(=O)N[C@@H]1CC[C@H](CC(=O)O)O[C@H]1CO, the relative growth was inactive: 1.01. O=c1ccc(=O)n(-c2ccccc2)[nH]1 was tested, and the relative growth was inactive: 0.857. In the case of Cc1n[nH]c(=S)n1N, the relative growth is reported as inactive: 0.968. With C[C@@H]1CCCCO[C@@H](CN(C)Cc2ccc(C(=O)O)cc2)[C@H](C)CN([C@@H](C)CO)C(=O)c2cc(NC(=O)Nc3ccccc3)ccc2O1 the relative growth was inactive: 1.01. For CC(=O)N(C)C[C@@H]1Oc2ncc(C#CC(C)(C)O)cc2C(=O)N([C@H](C)CO)C[C@H]1C, the relative growth was inactive: 0.991. C[C@H](CO)N1C[C@H](C)[C@H](CN(C)C(=O)Nc2ccc(C(F)(F)F)cc2)Oc2ccc(NS(C)(=O)=O)cc2CC1=O was tested, and the relative growth was inactive: 1.03. For COc1ccc(NC(=O)N(C)C[C@@H]2Oc3ccc(NC(=O)CCN4CCOCC4)cc3CC(=O)N([C@@H](C)CO)C[C@@H]2C)cc1, the relative growth was inactive: 0.995. For C[C@H](CO)N1C[C@H](C)[C@@H](CN(C)Cc2ccncc2)OCCCC[C@H](C)Oc2ccc(NC(=O)CCC(F)(F)F)cc2C1=O, the relative growth was inactive: 0.991. In the case of C[C@@H]1CCCCO[C@H](CN(C)C(=O)Cc2ccccc2)[C@H](C)CN([C@H](C)CO)C(=O)c2cc(NC(=O)c3ccccc3)ccc2O1, the relative growth is reported as inactive: 0.958. C[C@H]1CN([C@@H](C)CO)C(=O)c2cc(NS(=O)(=O)c3ccccc3)ccc2O[C@@H]1CN(C)Cc1ccc(Oc2ccccc2)cc1 was tested, and the relative growth was inactive: 1.01. In the case of COc1ccc(CN(C)C[C@@H]2OCCCC[C@H](C)Oc3ccc(NC(=O)NC4CCCCC4)cc3C(=O)N([C@@H](C)CO)C[C@@H]2C)cc1, the relative growth is reported as inactive: 0.982. With CC=Cc1ccc2n(c1=O)C[C@@H]1[C@@H](CO)[C@H](C(=O)NCCc3cn(C)cn3)[C@H]2N1C(=O)C1CC1 the relative growth was inactive: 0.99. In the case of O=C(C[C@H]1CC[C@H]2[C@@H](COC[C@@H](O)CN2S(=O)(=O)c2cccc(Cl)c2)O1)NCc1ccncn1, the relative growth is reported as inactive: 1.03. In the case of O=C(C[C@@H]1CC=CCC[C@H](Cc2ccc(F)cc2)C(=O)OC[C@@H](Cc2c[nH]c3ccccc23)NC1=O)N[C@@H](CO)Cc1ccccc1, the relative growth is reported as inactive: 1.04. C[C@@H]1CN([C@@H](C)CO)C(=O)c2cc(NS(=O)(=O)c3ccc(F)cc3)ccc2O[C@@H](C)CCCCO[C@H]1CN(C)CC1CCCCC1 was tested, and the relative growth was inactive: 0.983. For COc1ccc(CN(C)C[C@H]2OCCCC[C@H](C)Oc3ccc(NC(=O)c4ccccc4)cc3C(=O)N([C@H](C)CO)C[C@@H]2C)cc1, the relative growth was inactive: 0.933. In the case of C[C@@H]1CN([C@@H](C)CO)C(=O)Cc2cc(NC(=O)Nc3ccc4c(c3)OCO4)ccc2O[C@H]1CN(C)Cc1ccc(Oc2ccccc2)cc1, the relative growth is reported as inactive: 1.02. In the case of C[C@H](CCC(=O)NCCS(=O)(=O)O)[C@H]1CC[C@H]2[C@@H]3[C@H](O)C[C@@H]4C[C@H](O)CC[C@]4(C)[C@H]3C[C@H](O)[C@]12C, the relative growth is reported as inactive: 1.01. O=C(C[C@H]1CC[C@H]2[C@@H](COC[C@@H](O)CN2C(=O)Nc2ccc(Cl)c(Cl)c2)O1)NCc1ccncc1 was tested, and the relative growth was inactive: 0.987. For C[C@@H]1CCCCO[C@@H](CN(C)C)[C@@H](C)CN([C@@H](C)CO)C(=O)c2cc(NC(=O)Nc3cccc4ccccc34)ccc2O1, the relative growth was inactive: 1. In the case of C[C@@H]1CN([C@H](C)CO)C(=O)c2cc(NC(=O)Cc3cn(C)c4ccccc34)ccc2O[C@@H]1CN(C)CC1CCCCC1, the relative growth is reported as inactive: 0.938. In the case of C[C@H]1CN([C@@H](C)CO)C(=O)Cc2cc(NS(=O)(=O)c3cn(C)cn3)ccc2O[C@@H]1CN(C)CC1CC1, the relative growth is reported as inactive: 0.99. In the case of COc1ccc(NC(=O)Nc2ccc3c(c2)C(=O)N([C@H](C)CO)C[C@H](C)[C@H](CN(C)S(=O)(=O)c2cn(C)cn2)O3)cc1, the relative growth is reported as inactive: 0.978. For COCC#Cc1cnc2c(c1)C(=O)N([C@@H](C)CO)C[C@@H](C)[C@H](CN(C)S(=O)(=O)c1ccccc1)O2, the relative growth was inactive: 1.
